Data taken from PubChem BioAssay AID588855 (National Center for Advancing Translational Sciences (NCATS), 2011).
Out of some 410,000 compounds screened, about 5,000 (1.2%) were called active. Inconclusive means that the source gave no clear call. Such entries were picked first, then a sample of the others. Calls follow the shape of the dose curve; as a rule, active = well fitted inhibition curve with a large enough effect; inconclusive = small, poorly fitted or top-dose-only effect; inactive = no such curve, though single readings can be large or run the other way. Potencies of inconclusive entries are doubtful fits and often do not repeat.

test: qHTS for Inhibitors of TGF-b; details: HepG2 CAGA-GFP TGF-b/SMAD3 reporter, GFP fluorescence, 18 h, TGF-beta stimulated, 500 pg/mL final; series mostly up to 46.1 µM; activity, negative = inhibition: at the top concentration; also: nearly all actives have a fitted effect of over 65% in size
Outline: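 HEPG2 CAGA-GFP reporter cells (1000/well, DMEM with 1% FBS) received compounds, then recombinant TGF-beta at 500 pg/mL final for 18 hours at 37 degrees C. Per-cell GFP summed per well was normalised to unstimulated and stimulated DMSO controls before curve fitting.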
% is scaled to controls: 0 for no effect and ±100 for the full control effect; potency is read from the fitted curve at half-maximal effect; tags tell the direction and shape of the fitted curve.

SMILES	Potency	activity, negative = inhibition
c1cc2c(cc1C1=NNC(=NC3CC3)SC1)OCCO2	inconclusive: 25.1 µM [inhibitor, single point]	–
O=C(Cc1ccc(-n2cccc2)cc1)NCc1cccs1	inconclusive: 5.01 µM [inhibitor, partial curve, poor fit]	–
CCCOc1ccc(C2C3=C(Nc4nc(N)[nH]c(=O)c42)c2ccccc2C3=O)cc1 (stereo unspecified)	–	inactive: -8.12%
COc1ccc(-n2c(SCC(=O)Nc3sc4c(c3C#N)CCCC4)nnc2-c2ccccc2OC)cc1	inconclusive: 3.98 µM [inhibitor, single point]	–
Cc1cccc(C(=O)NC2CCN(S(=O)(=O)c3cccc(F)c3)CC2)c1	inconclusive: 5.62 µM [inhibitor, single point]	–
CCCCN(CCCC)Cc1ccc(C(=O)NN)o1	–	inactive: -0.716%
Cc1ccc(NC(=O)CSc2nc(-c3ccco3)cc(C(F)(F)F)n2)cc1	–	inactive: -7.02%
O=C(c1cc(COc2c(F)cccc2F)on1)N1CCC(c2ccccc2Cl)C1 (stereo unspecified)	inconclusive: 15.8 µM [inhibitor, single point]	–
Cc1ccc(NC(=O)CN2C(=O)CCSc3ccc(S(=O)(=O)N4CCCC4)cc32)cc1C	inconclusive: 28.2 µM [inhibitor, single point]	–
CCOC(=O)C1(CCOc2ccccc2)CCN(Cc2ccc(OC)cc2)CC1	–	inactive: -24.4%
COC(=O)c1ccc2nc(C3CCCCC3)c(Cc3cccc(Cl)c3)n2c1	inconclusive: 35.5 µM [inhibitor, partial curve, poor fit]	–
CC1=C(c2ccc(C)cc2)S(=O)(=O)NC1=NCCCN1CCN(c2ccc(F)cc2)CC1	inconclusive: 5.01 µM [inhibitor, partial curve, poor fit]	–
CC1=CCCC(C)(C)C1/C=C/C(C)=N/NC(=O)c1ccncc1 (stereo unspecified)	inconclusive: 6.31 µM [inhibitor, single point]	–
Cc1ccc(NC(=O)C2CCN(S(=O)(=O)c3cc([N+](=O)[O-])ccc3Cl)CC2)nc1	inconclusive: 3.98 µM [inhibitor, full curve, poor fit]	–
COc1cc(/C=C2/C(=O)N(c3ccc(Br)cc3)N=C2C)cc(OC)c1OC	inconclusive: 35.5 µM [inhibitor, single point]	–
CC(C)(C)c1ccc(C(=O)NCCCN2CCN(CCCNC(=O)c3ccc(C(C)(C)C)cc3)CC2)cc1	inconclusive: 35.5 µM [inhibitor, single point]	–
Oc1ccc(-c2cc(-c3ccc(O)cc3)nc(-c3ccccc3)n2)cc1	inconclusive: 20 µM [inhibitor, single point]	–
[O-][n+]1onc2c3cc(-c4ccccc4)nnc3ccc21	inconclusive: 3.16 µM [inhibitor, full curve]	–
CCSc1ncc(C)cc1[N+](=O)[O-]	inconclusive: 0.447 µM [inhibitor, full curve, poor fit]	–
COc1cccc(CNC(=O)c2cc(-c3ccc(Cl)cc3)n[nH]2)c1	inconclusive: 25.1 µM [inhibitor, single point]	–
CCC(CC)c1nn2c(=O)cc(COc3ccc(NC(=O)c4cccc(C)c4)cc3)nc2s1	inconclusive: 2.51 µM [inhibitor, partial curve]	–

SMILES	Potency	activity, negative = inhibition
COC(=O)c1cn(CC(=O)N2CCCCCC2)c2ccccc12	–	inactive: 1.76%
CC(=O)Nc1cccc(-c2ccnc3c2CC(C(=O)Nc2ccccc2)O3)c1 (stereo unspecified)	–	inactive: 1.52%
Cc1ccc(S(=O)(=O)N2CC=C(c3c(C)n(CC(=O)N4CCCC4)c4ccccc34)CC2)cc1C	inconclusive: 6.31 µM [inhibitor, full curve, poor fit]	–
CC(C)C1Nc2ccc(S(=O)(=O)N3CCOCC3)cc2NC1=O (stereo unspecified)	–	inactive: 4.64%
O=S(=O)(Nc1nc2ccccc2nc1Cl)c1ccc2ccccc2c1	inconclusive: 10 µM [inhibitor, partial curve, poor fit]	–
CN(C)S(=O)(=O)N(CC(=O)Nc1ccc(C(F)(F)F)cc1)c1ccccc1	inconclusive: 3.55 µM [inhibitor, full curve, poor fit]	–
C=C(C)CCC(C)N1CCC(n2nccc2NC(=O)CCCc2ccccc2)CC1 (stereo unspecified)	–	inactive: -18.2%
O=C(CCC(=O)N1CCN(c2ccccc2F)CC1)c1ccc(Cl)s1	inconclusive: 35.5 µM [inhibitor, single point]	–
COc1ccc(OC)c(/C=C/C(=O)c2ccc3c(c2)OCO3)c1	inconclusive: 35.5 µM [inhibitor, single point]	–
CCOC(=O)c1c(C)[nH]c(CCC(=O)Nc2cc(Cl)ccc2OC)c1C	inconclusive: 3.55 µM [inhibitor, partial curve, poor fit]	–
Cc1cccnc1CCNC(=O)C1CCC(=O)N(Cc2cccc(F)c2)C1 (stereo unspecified)	inconclusive: 35.5 µM [inhibitor, single point]	–
CCOc1ccc(NS(=O)(=O)c2ccc(C(=O)N(C)CC(=O)Nc3cccc(OC)c3)cc2)cc1	inconclusive: 7.94 µM [inhibitor, partial curve]	–
Cc1ccc(NC(=O)CN2C(=O)S/C(=C\c3cccn3-c3cccc(C(=O)O)c3)C2=O)c(C)c1	–	inactive: -13.5%
O=C1CCC/C=C/C[C@@H](CC(=O)N(CCO)Cc2ccccc2)C(=O)NC[C@@H](c2ccccc2)O1	–	inactive: -10.2%
COc1ccc(/C=C/C(=O)Nc2nc(C)c(C(=O)N(C)C)s2)cc1	inconclusive: 2.82 µM [inhibitor, single point]	–
O=C(COC(=O)c1cc(C(F)(F)F)cc(C(F)(F)F)c1)NCc1ccc(Cl)cc1	–	inactive: -15.4%
COc1ccc(OC)c(S(=O)(=O)Nc2ccc3c(c2)n(C)c(=O)n3C)c1	inactive	–
Cc1onc(-c2ccccc2)c1C(=O)OCC(=O)N(C)c1c(N)n(Cc2ccccc2)c(=O)[nH]c1=O	inconclusive: 0.631 µM [inhibitor, full curve, poor fit]	–
O=C(CCN1CCOCC1)NCC1COc2ccccc2O1 (stereo unspecified)	inconclusive: 0.562 µM [inhibitor, full curve, poor fit]	–
CCOC(=O)c1c(C)oc2ccc(N(C(=O)c3ccncc3)S(=O)(=O)c3ccc(CC)cc3)cc12	active: 12.6 µM	–
